Laboratory results from PubChem BioAssay AID1476 (National Center for Advancing Translational Sciences (NCATS), 2009).
Screen size: about 200,000 compounds; about 4,500 (2.2%) were called active. Inconclusive means that the source gave no clear call. Such entries were picked first, then a sample of the others. The call rests on the fitted dose curve; in most records, active means well fitted inhibition curve with a large enough effect; inconclusive means small, poorly fitted or top-dose-only effect, or effect the other way; inactive means flat fitted curve, though single readings scatter. A potency beside an inconclusive call is a rough fit, not a confirmed value.

Each molecule was assayed against Cruzipain (Trypanosoma cruzi) (UniProt P25779) (assay: qHTS Assay for Promiscuous and Specific Inhibitors of Cruzain (without detergent)). Details: purified cruzain, Z-FR-AMC fluorescence, no detergent.
Outline: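 Purified cruzain at 1.5 nM, pre-incubated 15 min with compound at room temperature in 100 mM sodium acetate pH 5.5, 5 mM DTT, 0.00005% Triton X-100. Reaction started with 2 uM Z-FR-AMC; AMC fluorescence increase over 60 s gives rate.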
Further: nearly all actives have a fitted effect of over 40% in size.
Potency means the concentration at half of the fitted maximal effect; tags describe the fitted curve by direction and shape.
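Wherever max response, negative = inhibition is given: plate controls were enzyme without inhibitor for no effect and buffer without enzyme for full effect.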

Sequence of UniProt P25779 (P25779 whole entry, looked up): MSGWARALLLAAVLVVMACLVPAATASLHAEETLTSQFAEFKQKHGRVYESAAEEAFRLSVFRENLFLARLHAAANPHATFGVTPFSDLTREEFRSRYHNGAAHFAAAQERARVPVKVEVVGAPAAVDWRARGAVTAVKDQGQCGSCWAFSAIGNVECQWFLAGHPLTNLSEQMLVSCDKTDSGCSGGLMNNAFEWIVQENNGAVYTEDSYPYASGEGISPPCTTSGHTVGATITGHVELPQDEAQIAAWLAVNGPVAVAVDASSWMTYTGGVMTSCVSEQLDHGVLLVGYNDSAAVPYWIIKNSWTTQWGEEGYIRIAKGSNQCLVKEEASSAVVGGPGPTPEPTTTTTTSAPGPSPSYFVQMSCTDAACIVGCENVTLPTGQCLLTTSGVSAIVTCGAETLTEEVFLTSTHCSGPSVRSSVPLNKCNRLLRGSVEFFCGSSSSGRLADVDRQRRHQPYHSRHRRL

| Structure (SMILES) | Potency | max response, negative = inhibition |
| --- | --- | --- |
| CCOC(=O)c1nn(-c2ccc(F)cc2)c2nc(Nc3ccccc3)cc(=O)n12 | inconclusive: 25.1 µM [activator, partial curve] | – |
| O=C(CCNS(=O)(=O)c1ccc2c(c1)CCN2C(=O)C1CC1)N1CCN(c2cccc(Cl)c2)CC1 | inconclusive: 39.8 µM [activator, single point] | – |
| O=C(Cc1cccs1)N1CCC(c2nc3c(nnn3Cc3ccc(F)cc3)c(=O)[nH]2)CC1 | inconclusive: 39.8 µM [activator, single point] | – |
| Cc1cccc(N(C)S(=O)(=O)c2cc(-c3cnc(C4CC4)o3)ccc2C)c1 | inconclusive: 39.8 µM [activator, single point] | – |
| COc1ccccc1CNC(=O)CN(c1ccc(C)cc1)S(=O)(=O)c1c(C)nn(C)c1C | inconclusive: 31.6 µM [activator, partial curve] | – |
| CCOc1ccc2nc(NC(=O)c3cccc(-c4cc5ccccc5oc4=O)c3)sc2c1 | active: 12.6 µM | – |
| O=C1C2C3C=CC(CC3)C2C(=O)N1c1ccc2c(c1)OCO2 (stereo not drawn) | – | inactive: -3.08% |
| COc1ccc(C2C(=O)N(C3CCCCC3)CC(=O)N2CC2COc3ccccc3O2)cc1 (stereo not drawn) | – | inactive: 3.28% |
| O=C(CN1C(=O)CCSc2ccc(S(=O)(=O)N3CCCC3)cc21)Nc1cccc(F)c1 | – | inactive: -8.68% |
| O=C(CNC(=O)c1ccc(N2C(=O)c3ccccc3C2=O)cc1)OCC(=O)c1cccc2ccccc12 | inconclusive: 15.8 µM [inhibitor, single point] | – |
| COc1ccc(C(CC(=O)Nc2ccc(Cl)cc2F)NC(=O)C(F)(F)F)cc1 (stereo not drawn) | inconclusive: 25.1 µM [inhibitor, single point] | – |
| COc1ccccc1-c1nnc(NC(C)=O)s1 | – | inactive: 3.47% |
| CCc1cccc(C)c1NC(=O)CSc1nc2ccccc2nc1Cc1ccccc1 | – | inactive: -3.18% |
| CCOc1cc(-c2nc(-c3ccccc3OC)no2)cc(OCC)c1OCC | inconclusive: 31.6 µM [activator, single point] | – |
| CCOC(=O)c1c(C)n(Cc2ccccc2)c2ccc(OCC(O)Cn3nc(C)nc3C)cc12 (stereo not drawn) | inconclusive: 25.1 µM [activator, partial curve] | – |
| COc1ccc(-c2cnn3c(N)c(S(=O)(=O)c4ccccc4)cnc23)cc1 | inconclusive: 31.6 µM [inhibitor, single point] | – |
| CC(C)(O)C#Cc1ccc(C(=O)N2CCN(C(=O)c3ccco3)CC2)cc1 | – | inactive: 5.8% |
| CC(C)(C)OC(=O)N1CCC(c2c(C(=O)N3CCN(Cc4ccccc4)CC3)cnn2-c2cccc(Cl)c2)CC1 | inconclusive: 39.8 µM [activator, single point] | – |
